The record followed here is the supplement of paper PMC4723716.

Structures are written as SMILES. Whole data set: some 3,600 compounds, median “viability index relative to DMSO control” near 0.81, cut for the lowest 2% near 0.13. Some of the results follow.
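Also: 384-well serum-free SaLSSA: MitoTracker Red CMXRos staining with saponin lysis, high-content imaging, treated-well particle count divided by plate-mean count of DMSO wells.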

The assay concerns Plasmodium falciparum NF54 stage V gametocytes. Description: viability index relative to DMSO control (fraction); higher = less gametocyte killing. Conditions: 1.25 µM, incubation time: 72 h.
In the case of `CC(Nc1cc(C)ccn1)=C(C#N)C#N`, the viability index stood at 1.04.
With `CCN(CC)c1ccc(NC(=O)c2cccs2)cc1` the figure was 0.614; with `CCOC(=O)N1CCC(NC(=O)c2c(C)nn(-c3cccc(C)c3)c2-n2cccc2)CC1`, 1.05.
With `CCOC(=O)C1=C(C)NC2=C(C(=O)CC(c3ccc(OC)c(OC)c3)C2)C1c1ccc(Cl)c(Cl)c1` (stereo not given) the figure was 0.71.
As for `Cc1cc(NCCCN(C)C)c2ccccc2n1`, the figure is 0.888; as for `CCOC(=O)c1cnc2c3c(ccc2c1O)CCCC3`, 0.853; as for `COc1ccc(C=C2SC(=Nc3ccccc3OC)NC2=O)cc1`, 0.677.
In turn, `CN1CCC(CCNCc2ccc(OCC(O)CN(C)Cc3ccccc3)cc2)CC1` (stereo not given) showed a viability index of 0.856.
With `CCC(C(=O)N1CCN(Cc2ccccc2)CC1)c1ccccc1` (stereo not given) the figure was 0.725; with `COc1ccc(C2CC(=O)C3=C(C2)NC(C)=C(C(=O)OC(C)C)C3c2ccccc2F)cc1OC` (stereo not given), 0.448; with `COc1ccc(C2CC(=O)C3=C(C2)NC(C)=C(C(=O)OC(C)C)C3c2ccccc2Br)cc1OC` (stereo not given), 0.363.
With `C[n+]1cccc(C=C2c3ccccc3-c3ncccc32)c1`, the viability index came to 0.663.
With `COc1cc(C=CC(=O)Nc2ccc3nc(N4CCN(c5ncccn5)CC4)cc(C)c3c2)cc(OC)c1OC` the figure was 0.863.
As for `Cc1ccc(-c2nc(CS(=O)(=O)CC(=O)NC3CCC(C)CC3)c(C)o2)cc1` (stereo not given), the figure is 0.968; as for `O=C(Nc1cc(C(F)(F)F)cc(C(F)(F)F)c1)Nc1ccc(Cl)c(Cl)c1`, 0.892.
As for `CC12C(=O)N(c3cccc(C(=O)O)c3)C(=O)C1C1c3ccccc3C2c2ccccc21` (stereo not given), the figure is 1.15.
`Nc1ccnc2cc(Cl)ccc12` registered a viability index of 1.06.
For the molecule `O=C(Nc1ccc2oc(-c3ccccc3F)nc2c1)c1ccc([N+](=O)[O-])o1`, the viability index stood at 0.128.
Take `CCOc1cc(-c2nnc3[nH]c(=O)n(C)c(=O)c3n2)ccc1OC(C)C`: the viability index worked out at 0.811.
As for `CC(c1nc2ccc(Cl)cc2c(=O)n1C)N1CCN(S(=O)(=O)c2cccc3ccccc23)CC1` (stereo not given), the figure is 0.929.
As for `Fc1ccc(CCNc2ncnc3c2[nH]c2ccccc23)cc1`, the figure is 0.605; as for `COc1ccc(CN2CC(=O)N(c3ccc(Cl)cc3)C2=S)cc1OC`, 1.28.
The molecule `Cc1ccccc1NC(=O)N1CCN(C(=O)c2nc(-c3ccccc3)nc(C)c2C(=O)OC(C)C)CC1C` (stereo not given) gave a viability index of 0.476.
In turn, `O=C(COc1cccc2ccccc12)NC1CCS(=O)(=O)C1` (stereo not given) registered a viability index of 1.06.
With `COc1cccc(C(=O)NC(c2ccc(Cl)cc2)c2cc(Cl)c3cccnc3c2O)c1` (stereo not given) the figure was 0.523.
